Values joined by “and” are separate entries in the source; they are usually repeats but may differ in a detail not shown here. Equal entries are not always repeated.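 Five compound concentrations were applied to cells in 96-well plates for 48 hours; endpoints were derived by simple linear interpolation of the resulting dose-response curve. GI50 marks 50% less growth.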
System: NCI-H322M lung
Assay: DTP human tumour cell line panel, 48 h

## CCC/C=C/C=C/C(=O)OC1/C(=C/C(=O)OC)CC2CC(C(C)O)OC(=O)CC(O)CC3CC(OC(C)=O)C(C)(C)C(O)(CC4C/C(=C/C(=O)OC)CC(/C=C/C(C)(C)C1(O)O2)O4)O3 (stereo unspecified)
  GI50: 7.43 µM and 0.964 µM
